We go through 42 molecules from ChEMBL document CHEMBL4888484, “Replenishing the malaria drug discovery pipeline: Screening and hit evaluation of the MMV Hit Generation Library 1 (HGL1) against asexual blood stage Plasmodium falciparum ,using a nano luciferase reporter read-out” (2022).

The structures appear in SMILES notation. Hit rate of the full screen: of about 150,000 compounds, about 540 (0.36%) showed an effect of 50% or more. This is one part of the list.

This test relates to Plasmodium falciparum. In words: Primary screen in NF54 nanoGlo assay, in single point, at 2uM, 72h; a lower Z score goes with more inhibition. The test is classed as functional, Erythrocyte. As to conditions: timepoint 72 hour.
Regarding `CCCN(C(=O)N(C)C)[C@@H](C)C(=O)Nc1ccccc1`, the “% Inhibition” value is -6% and the Z score turned out to be 0.75.
For `O=C(Nc1cnc2ccccc2n1)C1CCC(F)(F)CC1` the same measures were 1% and -0.06.
For `Cc1ccc([C@@](C)(O)CNC(=O)Nc2ccnn2C2CCCCC2)o1` the same measures were -7% and 1.37.
The matching figures for `NC(=O)Cc1ccc(OCc2noc(C(=O)NCc3cccnc3)n2)cc1`: -13% and 2.43.
Turning to `O=C(c1cccc(F)c1)N1CCC(n2cc(-c3cccnc3)nn2)CC1`, the “% Inhibition” value was -3% and the Z score was 0.57.
For `Cc1nc(C(C)(C)NCC(=O)Nc2c(C)nn(C)c2C)sc1C` the same measures were -6% and 1.01.
Take `CC[C@H](C)N(Cc1cc(NC(=O)C(C)C)ccc1N(C)C)C(=O)c1cccc(C)c1`: the “% Inhibition” value is given as -9% and the Z score was 1.61.
For `Cc1noc(C)c1CN1C(=O)[C@@H]2CC[C@H]1CN(C(=O)Cc1ccccc1)C2` the same measures were -11% and 1.34.
For `Cc1cnc(NC(=O)C(F)(F)C(F)(F)F)s1` the same measures were -3% and 0.35.
As for `Cc1cnc(NC(=O)C2CN(C(=O)COc3ccccc3F)C2)s1`, the “% Inhibition” value is on record as -11% and the Z score came to 1.64.
The matching figures for `C[C@H](OC(=O)c1cc(-c2ccccc2Cl)on1)c1nc2ccccc2n1C(F)F`: -4% and 0.67.
For `COc1ccccc1N1CCN(C(=O)C2=CCN(Cc3cccc(F)c3)CC2)CC1` the same measures were -9% and 1.32.
For `CCc1c(NC(=O)CCCOc2cccc(F)c2)nnn1CCc1ccc(OC)cc1`, the “% Inhibition” value is 12% and the Z score is listed as -1.94.
The matching figures for `Cc1cc(CN2CCN(C(=O)c3csc(C)n3)CC2)on1`: -12% and 1.67.
The matching figures for `COc1ccccc1O[C@H]1CCCN(C(=O)c2c[nH]c(=O)n2C)C1`: 0% and 0.03.
The matching figures for `CC(C)NC(=O)N[C@H]1CCN2C(=O)c3cc(-c4ccccc4)ccc3NC(=O)[C@H]12`: 26% and -2.93.
Turning to `CCOCC(=O)N1C[C@H](O)[C@@H](N2CCN(c3ccccc3OC)CC2)C1`, the “% Inhibition” value was -10% and the Z score is reported as 1.74.
Consider `CCN1CCN(C2CCN(Cc3nc(-c4ccccc4)no3)CC2)CC1`, for which the “% Inhibition” value is listed as -5% and the Z score is 0.65.
Consider `COC(=O)[C@@H](C)NCc1cscn1`, for which the “% Inhibition” value is given as -6% and the Z score came to 0.57.
The matching figures for `O=C(Nc1cccc(Cl)c1)C1=NCCCN1`: -1% and 0.11.
The matching figures for `c1ccc2c(c1)CCC(N1CC[C@H]3[C@H](C1)OCc1cnnn13)CC2`: -11% and 2.09.
The matching figures for `COc1ccc(-c2noc(-c3ccc(N4CCN(c5ncccn5)CC4)nc3)n2)cc1`: 1% and -0.15.
For the molecule `CC(=O)c1cccc(N[C@@H](C)C(=O)Nc2nc(C)c(C)s2)c1`, the “% Inhibition” value stood at 9% and the Z score is -1.22.
For `CN(C(=O)Cc1ccc(NC(=O)[C@@H]2COCCO2)cc1)c1ccccc1` the same measures were -16% and 2.2.
The matching figures for `O=C(NCC(F)(F)C1(O)CCCCC1)c1ccc(O)nc1`: -20% and 2.09.
The matching figures for `O=C(N[C@H]1CCN(CCCc2ccccc2)C1=O)c1cc[nH]n1`: -7% and 1.16.
In the case of `C[C@H](NCCC(=O)Nc1nccs1)c1nc2c(s1)CCCC2`, the “% Inhibition” value stood at 18% and the Z score is on record as -2.32.
The matching figures for `CCCn1cc(CN/C(=N\c2ccccc2OC)NC(=O)c2ccccc2F)c(C)n1`: 3% and -0.6.
For `CN1CCC(N2CCN(S(=O)(=O)c3cc(-c4nc(C(C)(C)C)cs4)cs3)CC2)CC1` the same measures were 8% and -1.1.
In the case of `CCn1ccnc1CN1CCCC12CCN(c1cc(C)nc3ccccc13)CC2`, the “% Inhibition” value is recorded as 0% and the Z score is recorded as -0.01.
The matching figures for `CN(C)CCN(C)C1CCN(c2nccc3ccccc23)CC1`: -2% and 0.32.
For `COCCNC(=O)c1coc(CN(Cc2ccc(C)cc2)[C@@H](C)C(C)C)n1`, the “% Inhibition” value is listed as -5% and the Z score is recorded as 0.68.
For `O=C(c1snc(O)c1Cl)N1CCC(CF)CC1` the same measures were -20% and 2.65.
For `CC(C)(CO)N1CCN(C(=O)c2nc3ccccc3cc2Cl)CC1` the same measures were 20% and -2.59.
For `C#CCN(C(=O)c1ccc(C(=O)O)s1)C1CCCC1` the same measures were -11% and 1.82.
For `CCn1ccc2ccn(Cc3nc(-c4ccc(OC)cc4)no3)c(=O)c21`, the “% Inhibition” value turned out to be 5% and the Z score is given as -1.01.
As for `CN1CC[C@@]2(CCC1=O)CN(C(=O)Nc1ccc3c(c1)OCO3)CCN2C`, the “% Inhibition” value was -8% and the Z score is 1.5.
For `CC(=O)N[C@@H]1c2ccccc2C2(CCN(C(=O)c3csc(C)n3)CC2)[C@H]1OCc1ccncc1` the same measures were -15% and 2.58.
For `CCc1nc2cc(OC)c(OC)cc2c(=O)n1CCNC(=O)c1cccnc1` the same measures were -8% and 1.01.
For `Cc1noc(-c2cc(S(=O)(=O)Nc3ccccc3)c(C)s2)c1C`, the “% Inhibition” value is recorded as -3% and the Z score amounted to 0.34.
`O=C(CCn1cnc2ccccc2c1=O)N1CCC[C@H](Oc2ncccn2)C1`: the “% Inhibition” value was -6% and the Z score came out at 0.77.
For `CCN(CC)S(=O)(=O)NCc1cc(=O)n(-c2ccccc2)n1C` the same measures were -2% and 0.24.

The term % Inhibition denotes the drop in the measured response relative to a control, in per cent.
